{"source": "PubChem BioAssay AID1030", "about": "(National Center for Advancing Translational Sciences (NCATS), 2008)", "note": "Out of some 220,000 compounds screened, about 16,000 (7.3%) were called active. This list was built around the results that the source calls inconclusive (neither active nor inactive); the mix of calls is not that of the screen. Calls follow the shape of the dose curve; as a rule, active = well fitted inhibition curve with a large enough effect (not every such curve was filed as active); inconclusive = small, poorly fitted or top-dose-only effect, or another doubt; inactive = no such curve, though single readings can be large or run the other way. Potencies of inconclusive entries are left out as doubtful fits. Potency is read from the fitted curve at half-maximal effect; tags tell the direction and shape of the fitted curve.", "data": [{"target": "Aldehyde dehydrogenase 1A1 (Homo sapiens) (UniProt P00352)", "sequence (P00352 whole entry, looked up)": "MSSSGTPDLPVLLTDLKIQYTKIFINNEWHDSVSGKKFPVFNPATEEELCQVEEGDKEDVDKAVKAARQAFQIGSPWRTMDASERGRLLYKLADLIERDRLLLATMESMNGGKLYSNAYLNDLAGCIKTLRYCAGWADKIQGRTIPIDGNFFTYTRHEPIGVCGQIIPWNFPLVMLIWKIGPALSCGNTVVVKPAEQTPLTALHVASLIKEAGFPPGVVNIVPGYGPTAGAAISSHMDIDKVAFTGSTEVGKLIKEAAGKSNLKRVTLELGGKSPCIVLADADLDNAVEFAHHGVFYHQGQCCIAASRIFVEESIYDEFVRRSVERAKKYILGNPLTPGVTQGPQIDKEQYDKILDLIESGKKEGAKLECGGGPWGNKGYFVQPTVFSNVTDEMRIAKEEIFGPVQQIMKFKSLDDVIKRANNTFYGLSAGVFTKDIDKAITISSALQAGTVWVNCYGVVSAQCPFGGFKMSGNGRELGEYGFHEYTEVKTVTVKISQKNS", "test": "qHTS Assay for Inhibitors of Aldehyde Dehydrogenase 1 (ALDH1A1);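 as to activity, negative = inhibition: plate controls were no enzyme wells and a reference inhibitor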", "details": "Purified ALDH1A1, NADH fluorescence, propionaldehyde substrate; series mostly up to 75.3 µM; activity, negative = inhibition: at the top concentration", "values": [{"smiles": "O=C(COC(=O)c1ccc([N+](=O)[O-])s1)NCc1ccc(F)cc1", "Potency": "active: 7.08 µM"}, {"smiles": "NC(=S)Nc1nc2ccccc2s1", "Potency": "inconclusive [inhibitor, single point]"}, {"smiles": "COc1ccc(S(=O)(=O)Nc2ccccn2)c(C)c1C", "Potency": "active: 25.1 µM"}, {"smiles": "CCN1CCC2(CC1)N=C(c1ccc(F)cc1)C(=S)N2C(=O)c1ccc(C)cc1", "Potency": "inconclusive [inhibitor, single point]"}, {"smiles": "Cc1cccc(C)c1-n1nnnc1-c1cnccc1C(F)(F)F", "Potency": "active: 20 µM"}, {"smiles": "O=C(O)c1cc(NCc2cccs2)ccc1N1CCOCC1", "activity, negative = inhibition": "inactive: 1.46%"}, {"smiles": "COC(=O)c1ccc(C(/C=C/[C@@H](C)C(=O)NCCc2c[nH]c3ccccc23)NC(=O)OCc2ccccc2)cc1", "note": "(stereo partly specified)", "Potency": "inconclusive [inhibitor, single point]"}, {"smiles": "COc1ccc(NC2=C(C(C)=O)C(c3ccc(N(C)C)cc3)C(C(C)=O)C(C)(O)C2)cc1", "note": "(stereo unspecified)", "Potency": "inconclusive [inhibitor, single point]"}, {"smiles": "CC(C)OCCCn1c(NN)nc2ccccc2c1=O", "Potency": "inconclusive [inhibitor, single point]"}, {"smiles": "CC1=C(C(=O)Nc2ccccn2)C(c2ccc(Cl)cc2)NC(=S)N1", "note": "(stereo unspecified)", "Potency": "active: 3.55 µM"}, {"smiles": "COc1ccccc1N1CCN(C(=O)c2coc(=O)c(Br)c2)CC1", "Potency": "inconclusive [inhibitor, partial curve]"}, {"smiles": "O=C(Nc1ccc2oc(-c3ccncc3)nc2c1)c1ccc(F)cc1", "Potency": "inconclusive [inhibitor, single point]"}, {"smiles": "CCN1CCC(=NNC(=O)CC23CC4CC(CC(C4)C2)C3)CC1", "Potency": "active: 1.78 µM"}, {"smiles": "CC(=NCCCNC1CCCCC1)C1=C(O)CC(C)(C)CC1=O", "Potency": "active: 28.2 µM"}, {"smiles": "Cc1cccc(NC(=S)NNc2ncc(C(F)(F)F)cc2Cl)c1", "Potency": "active: 28.2 µM"}, {"smiles": "CN(C)/C=C/C(=O)c1cnc(-c2ccccn2)s1", "Potency": "inconclusive [inhibitor, partial curve]"}, {"smiles": "NCCc1cnc[nH]1", "Potency": "inactive"}, {"smiles": "COc1ccc(C2=Nn3c(nnc3-c3ccncc3)SC2)cc1", "activity, negative = inhibition": "inactive: 7.05%"}, {"smiles": "C(=C\\c1ccccc1)/CN1CCN(c2ncnc3c2oc2ccccc23)CC1", "Potency": "inconclusive [inhibitor, single point]"}, {"smiles": "COc1ccc(NC(=O)Cn2c(C(C)C)nc(C)cc2=O)cc1Cl", "Potency": "inconclusive [inhibitor, single point]"}, {"smiles": "CCNC(=S)N(CCc1ccc(S(N)(=O)=O)cc1)C1CC(=O)N(c2ccccc2)C1=O", "note": "(stereo unspecified)", "Potency": "inconclusive [inhibitor, single point]"}, {"smiles": "COc1ccc(NC(=O)c2cc3c(s2)CCC3)cc1S(=O)(=O)N1CCOCC1", "Potency": "active: 0.562 µM"}, {"smiles": "NC(=O)NCC(N)C(=O)O", "note": "(stereo unspecified)", "activity, negative = inhibition": "inactive: 5.87%"}, {"smiles": "COc1ccc(OC)c(/C=N/NC(=O)C(=O)NCc2cccnc2)c1", "Potency": "inconclusive [inhibitor, single point]"}, {"smiles": "CCN1CCN(c2ncnc3c2c(-c2ccccc2)cn3-c2ccc(F)cc2)CC1", "Potency": "inconclusive [inhibitor, single point]"}, {"smiles": "OCCCNC(=S)Nc1ccc(Br)cc1Cl", "activity, negative = inhibition": "inactive: -5.73%"}, {"smiles": "Cn1ncc(Cl)c1C(=O)Nc1cccc(Cl)c1", "Potency": "active: 7.94 µM"}, {"smiles": "O=C(Cn1nnc(-c2ccccc2)n1)NNC(=O)c1ccccc1", "Potency": "inconclusive [inhibitor, partial curve]"}, {"smiles": "Cc1cc(C)nc(Nc2n[nH]c(-c3ccccc3Cl)n2)n1", "Potency": "inconclusive [inhibitor, partial curve]"}, {"smiles": "O=C1c2cccnc2C(=O)N1CO", "activity, negative = inhibition": "inactive: 1.03%"}, {"smiles": "CCOC(=O)c1c(C)nc(-c2ccccc2)nc1NC(=O)CC", "Potency": "inconclusive [inhibitor, single point]"}, {"smiles": "N#C/C(=C\\c1cccnc1)c1nc2c(s1)CCCC2", "Potency": "inconclusive [inhibitor, single point]"}, {"smiles": "Cn1c(=O)n(C)c2cc(NC(=O)CCl)ccc21", "Potency": "active: 0.708 µM"}, {"smiles": "COc1cccc(C(=O)NCCN2C(=O)S/C(=C/c3cccs3)C2=O)c1OC", "Potency": "inconclusive [inhibitor, single point]"}, {"smiles": "CCCC(C)NC(=O)COC(=O)c1cccc(NS(C)(=O)=O)c1", "note": "(stereo unspecified)", "activity, negative = inhibition": "inactive: 7.23%"}, {"smiles": "CC1(C)CC(=O)c2c(nn(-c3ccccc3)c2-c2ccncc2)C1", "Potency": "active: 14.1 µM"}, {"smiles": "Cc1ccc(S(=O)(=O)N2CCCCC2C(=O)NCc2ccco2)cc1", "note": "(stereo unspecified)", "Potency": "inconclusive [inhibitor, single point]"}, {"smiles": "O=C(NCc1cccs1)c1cnc2sccn2c1=O", "Potency": "inconclusive [inhibitor, single point]"}, {"smiles": "Cc1ccc(NC(=O)CCC(=O)NNC(=O)C(C)(C)C)c(C)c1", "activity, negative = inhibition": "inactive: -5.34%"}, {"smiles": "CCC(c1nnnn1Cc1ccc2c(c1)OCO2)N1CCN(c2ccccc2)CC1", "note": "(stereo unspecified)", "Potency": "inconclusive [inhibitor, partial curve, poor fit]"}, {"smiles": "COC(=O)COc1ccc(S(=O)(=O)N2CCOCC2)cc1", "activity, negative = inhibition": "inactive: 10.5%"}, {"smiles": "Cc1ccc(S(=O)(=O)N[C@H]2COC(=O)[C@H](C)COC(=O)C/C=C\\[C@H]2C)cc1", "activity, negative = inhibition": "inactive: 11.4% [at 13.5 µM]"}, {"smiles": "COC(=O)c1sc2nc(C)nc(SCC(=O)N3CCC(C(=O)O)CC3)c2c1C", "Potency": "inconclusive [inhibitor, single point]"}, {"smiles": "O=C(CSc1ncn[nH]1)Nc1ccc(S(=O)(=O)N2CCCC2)cc1", "activity, negative = inhibition": "inactive: 2.51%"}, {"smiles": "COc1c2c(c(C(=O)/C=C/C(C)=C/c3ccccc3)c3c1OCO3)CCN(C)C2", "activity, negative = inhibition": "inactive: 12%"}, {"smiles": "CCc1cc2cc3c(cc2nc1SCC(=O)N1CCN(C(=O)c2ccco2)CC1)OCO3", "Potency": "inconclusive [inhibitor, single point]"}, {"smiles": "Cn1cnnc1SCc1nnc(-c2ccccc2Br)o1", "activity, negative = inhibition": "inactive: -2.2%"}, {"smiles": "CCOC(=O)C1CCN(C2CC(=O)N(c3ccc(OCC)cc3)C2=O)CC1", "note": "(stereo unspecified)", "Potency": "active: 28.2 µM"}, {"smiles": "CN(C)c1ncc2ncc(=O)n(CCC#N)c2n1", "Potency": "inconclusive [inhibitor, single point]"}, {"smiles": "COC(=O)c1ccc(NC(=O)c2c(C(=O)Nc3ccccc3)sc3nc(C)cc(=O)n23)cc1", "Potency": "inconclusive [inhibitor, partial curve, poor fit]"}, {"smiles": "O=C(NCCN1C(=O)C2C3C=CC(C3)C2C1=O)Nc1ccccc1", "note": "(stereo unspecified)", "Potency": "active: 12.6 µM"}, {"smiles": "CCn1nc(C(=O)OCC(=O)c2ccc3c(c2)OCCO3)c2ccccc2c1=O", "Potency": "inconclusive [inhibitor, single point]"}, {"smiles": "CCOC(=O)N1CCC(n2c(SCC(=O)NCCC3=CCCCC3)nc3ccccc3c2=O)CC1", "Potency": "active: 12.6 µM"}, {"smiles": "COc1ccc(/C=C/C(=O)Nc2ccc3c(c2)CCC3)cc1OC", "Potency": "inconclusive [inhibitor, single point]"}, {"smiles": "c1ccc(-c2nnc3sc(-c4cc5ccccc5o4)nn23)cc1", "Potency": "inconclusive [inhibitor, single point]"}, {"smiles": "CCc1c(C)nc2cc(C)[nH]n2c1=O", "Potency": "inconclusive [inhibitor, single point]"}, {"smiles": "Cn1cnnc1SCC(=O)Nc1ccc2nc(SCc3ccccc3Cl)sc2c1", "Potency": "active: 25.1 µM"}, {"smiles": "CCOc1ccccc1CNC(=O)C1CCN(c2nc3ccccc3o2)CC1", "Potency": "inconclusive [inhibitor, single point]"}, {"smiles": "Cc1nc(NC(=O)COC(=O)c2ccc(S(=O)(=O)N3CCc4ccccc4C3)cc2)c(Cl)cc1Cl", "Potency": "inconclusive [inhibitor, single point]"}, {"smiles": "CN(C)c1ncc2nc(-c3ccc(F)cc3)c(=O)n(Cc3ccc(F)cc3)c2n1", "Potency": "inconclusive [inhibitor, partial curve]"}, {"smiles": "COc1ccc(-c2nnc(COc3ccc4ccccc4c3)o2)cc1OC", "Potency": "inconclusive [inhibitor, single point]"}, {"smiles": "Nc1nc(SCC(=O)Nc2ncc(C(F)(F)F)cc2Cl)n[nH]1", "activity, negative = inhibition": "inactive: -0.781%"}, {"smiles": "COc1ccc(C(=O)Nc2ccccc2C(=O)N/N=C/c2ccc(O)c(OC)c2)cc1", "activity, negative = inhibition": "inactive: 3.47%"}, {"smiles": "c1ccc(Cc2nn3c(C4COc5ccccc5O4)nnc3s2)cc1", "note": "(stereo unspecified)", "Potency": "active: 2 µM"}, {"smiles": "O=C(NCc1ccc2c(c1)OCO2)C1CCN(Cc2cnn(-c3ccccc3)c2-n2cccc2)CC1", "Potency": "inconclusive [inhibitor, single point]"}, {"smiles": "Cc1ccc(NC(=O)CCNS(=O)(=O)c2cccc3nonc23)cc1", "Potency": "inconclusive [inhibitor, single point]"}, {"smiles": "O=C(O)CCCC(=O)Nc1ccccc1Br", "activity, negative = inhibition": "inactive: 3.45%"}, {"smiles": "COc1ccc(-c2ccc(/C=N/N3C(=O)C4C5C=CC(C6CC56)C4C3=O)o2)c([N+](=O)[O-])c1", "note": "(stereo unspecified)", "Potency": "active: 10 µM"}, {"smiles": "O=C(Nc1ccc(S(=O)(=O)Nc2ncccn2)cc1)c1ccccc1NS(=O)(=O)c1ccc(F)cc1", "Potency": "inconclusive [inhibitor, single point]"}, {"smiles": "COC(=O)c1cccc(NC(=O)c2cnoc2C)c1", "activity, negative = inhibition": "inactive: 9.05%"}, {"smiles": "Cn1c(/C(C#N)=C(\\O)COc2ccc3ccccc3c2)nc2ccccc21", "Potency": "inconclusive [inhibitor, single point]"}, {"smiles": "Cc1nn(Cc2ccccc2)c(C)c1C(=O)OCC(=O)c1cc(C)n(CC(F)(F)F)c1C", "Potency": "inconclusive [inhibitor, single point]"}, {"smiles": "COc1cccc(C(=O)O/N=C/c2ccc(Sc3ccc(C)cc3)nc2)c1", "Potency": "inconclusive [inhibitor, single point]"}, {"smiles": "CCN(CC)C(=O)Cc1c(OC)ccc2cc(Br)ccc12", "activity, negative = inhibition": "inactive: -4.26%"}, {"smiles": "Cc1cccc(C(=O)NCC(c2ccc(F)cc2)N2CCOCC2)c1", "note": "(stereo unspecified)", "activity, negative = inhibition": "inactive: 19%"}, {"smiles": "CCOC(=O)c1cnn(CCOC(=O)c2ccc(OC)cc2)c1NC(=O)c1ccc(OC)cc1", "Potency": "inconclusive [inhibitor, partial curve]"}]}]}
